Values joined by “and” are separate entries in the source; they are usually repeats but may differ in a detail not shown here. Equal entries are not always repeated. In all, about 420,000 compounds went through this assay and about 64,000 (15%) were called active. The shares of active, inactive and inconclusive entries below differ from those in the screen. Calls come from the whole dose curve; as a rule, active = well fitted inhibition curve with a large enough effect; inconclusive = small, poorly fitted or top-dose-only effect; inactive = flat fitted curve, though single readings scatter. Potencies of inconclusive entries are left out as doubtful fits. Peptide text beside a SMILES is read from it.
Test: qHTS for Inhibitors of human tyrosyl-DNA phosphodiesterase 1 (TDP1): qHTS in cells in absence of CPT; note: nearly all actives have a fitted effect of over 55% in size
Conditions: DT40 Tdp1-/- hTDP1 cells, no CPT, ATP luminescence, 48 h; activity change, negative = growth inhibition: at 46.2 µM (top of the series)
Method in brief: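 Cells were dispensed at 400 per well, compounds added by pin tool, plates incubated ≥48 hr at 37 °C, then CellTiter-Glo added for 30 min at room temperature before luminescence reading. Line: DT40 Tdp1-/- complemented with hTDP1; camptothecin omitted.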
In the case of COc1ccc(OC)c(NC(=O)CN2C(=O)COc3ccc(S(=O)(=O)N4CCCC4)cc32)c1, the Potency is reported as inconclusive [inhibitor, single point]. With CC(=O)Nc1ccc(C=CC(=O)c2ccc([N+](=O)[O-])cc2)cc1 the Potency was inconclusive [inhibitor, single point]. With COc1ccc(CN2CCN(C(c3ccc(F)cc3)c3ccc(F)cc3)CC2)c(OC)c1OC the Potency was active: 9.44 µM and active: 2.91 µM. With COc1cc(NC(=S)NCCCO)c(OC)cc1Cl the Potency was “inactive”. For O=C(Nc1cccc(Cl)c1)Nc1nnc(-c2ccccc2)o1, the Potency was active: 16.4 µM. With CCN1C(=NCC2CC2)N[C@@H](c2ccccc2)C(C(=O)OC)=C1C the Potency was inconclusive [inhibitor, partial curve]. In the case of CCc1c(C2(O)CCCCC2)[nH]c2c(C(=O)OC)cc(Cl)cc12, the Potency is reported as inconclusive [inhibitor, single point]. With CCN(CC)CCCNc1nc2ccccc2c2nc(-c3ccncc3)nn12 the Potency was active: 20.6 µM. With Cc1nnc2ccc(N3CCN(C(=O)c4ccccc4)CC3)nn12 the Potency was “inactive”. For Cc1nn2c(NCCCN(C)C)c3c(nc2c1-c1ccccc1)CCC3, the Potency was active: 29.1 µM. For CCCOc1ccc(C(=O)CCC(=O)OCC(=O)N2CC(=O)Nc3ccccc32)cc1, the Potency was “inactive”. For CCN(CC(=O)Nc1ccccc1C(F)(F)F)C(=O)c1oc2ccc(OC)cc2c1C, the activity change, negative = growth inhibition was inconclusive: -30.4% [inhibitor]. With O=C(NCc1ccc2c(c1)OCO2)c1nnc(Cc2ccc(F)cc2)o1 the Potency was “inactive”. For CN(C)c1ccc(/C=C2\C=Cc3ccccc32)cc1[N+](=O)[O-], the Potency was inconclusive [inhibitor, single point]. With Cn1nnnc1SCC(=O)NC(=O)Cc1ccccc1 the Potency was active: 6.51 µM. With COc1cc(CNc2ccc3[nH]c(=O)[nH]c3c2)ccc1OCc1cccc(C)c1 the Potency was inconclusive [inhibitor, single point]. With O=C(NC1CCCC1)C(c1cccnc1)N(Cc1ccc(F)cc1)C(=O)c1csnn1 (stereo not drawn) the Potency was “inactive”. In the case of CCOC(=O)Cn1c(=O)n(Cc2ccco2)c(=O)c2ccc(C(=O)NC3CCCC3)cc21, the Potency is reported as inconclusive [inhibitor, single point]. For CC(C)(C)n1cn[nH]c1=S, the Potency was “inactive”. In the case of Cc1ccc(NC(=O)CCC(=O)c2ccc(F)cc2)cc1Cl, the Potency is reported as “inactive”. In the case of COc1ccc(CCNC(=O)CCn2c(=O)oc3ccccc32)cc1, the Potency is reported as “inactive”. With O=C(NCc1cccc(F)c1)c1ccccc1NC(=O)c1nsc2ccccc12 the Potency was active: 23.1 µM. In the case of CC(=O)c1ccc2c(c1)OCCOCCOc1ccccc1OCCOCCO2, the Potency is reported as active: 23.1 µM. For Cc1ccc2nc(N(CCCN(C)C)C(=O)COc3ccc(Cl)cc3)sc2c1, the Potency was active: 20.6 µM. With CN(C)c1nc(Oc2ccc(/C=N/O)cc2)nc(N(C)C)n1 the Potency was “inactive”. For CCc1ccc(C(=O)C(C)CN2CCCCC2)cc1 (stereo not drawn), the Potency was inconclusive [inhibitor, single point]. With CCOc1ccc(C(=O)OCC(=O)NC2CCCC2)cc1OCC the Potency was “inactive”. For O=C(c1ccccc1)N1CCc2cc(CNS(=O)(=O)c3ccc(Cl)s3)ccc21, the Potency was active: 16.4 µM. For CN1CCN(CC(O)COc2ccc(C34CC5CC(CC(C5)C3)C4)cc2)CC1 (stereo not drawn), the Potency was active: 13 µM. With O=C(CCSCc1cccc(Cl)c1)NCCc1ccc(Cl)cc1 the Potency was inconclusive [inhibitor, partial curve]. With CC(=O)NC(C(=O)NCC(N)=O)C(C)C (stereo not drawn) (HELM PEPTIDE1{[ac].[CC(C)C(N[*:1])C(=O)[*:2]].G.[am]}$$$$V2.0) the Potency was “inactive”. For CCOC(=O)C1CCN(c2ncnc3c2[nH]c2cccc(OC)c23)CC1, the Potency was active: 25.9 µM. With O=C(N1CCCCCC1)N1CCN(S(=O)(=O)c2cccc([N+](=O)[O-])c2)CC1 the Potency was inconclusive [inhibitor, single point]. With COc1ccc(NS(=O)(=O)c2ccc(S(=O)(=O)N3CCCC3)cc2)cc1 the Potency was active: 20.6 µM. In the case of Cc1ccccc1Sc1c(C#N)c(-c2ccccc2)nn1C, the Potency is reported as inconclusive [inhibitor, single point]. For COc1ccccc1C(C)Nc1ccc(S(=O)(=O)N2CCN(C)CC2)cc1[N+](=O)[O-] (stereo not drawn), the Potency was inconclusive [inhibitor, single point]. In the case of Cn1cnc(S(=O)(=O)Nc2ccc(OC(F)(F)F)cc2)c1, the Potency is reported as “inactive”. For Cn1nc(CC(=O)NCc2cccc3ccccc23)c2ccccc2c1=O, the Potency was active: 9.2 µM. With CC(=O)c1cccc(-c2cnc3c(NC=O)cc(-c4cccc(C(=O)N(C)C)c4)cn23)c1 the Potency was inconclusive [inhibitor, single point]. For CCOc1ccc(NC(=O)CCCc2cc(-c3ccc(OCC)cc3)on2)cc1, the Potency was inconclusive [inhibitor, partial curve]. For COc1ccc(OC)c2c1sc(=NC(=O)c1cccc(N3C(=O)CCC3=O)c1)n2C, the Potency was inconclusive [inhibitor, partial curve]. In the case of C[C@H]1CN([C@@H](C)CO)C(=O)CCCn2nncc2CO[C@@H]1CN(C)Cc1ccc2c(c1)OCO2, the Potency is reported as inconclusive [inhibitor, single point]. For O=C(Nc1ccc(NC(=O)c2ccc3c(c2)OCO3)cc1)c1cccc(Cl)c1, the Potency was “inactive”. With CC1=CC(C)(C)n2c(O)c(N=N)c3c(C)ccc1c32 the Potency was inconclusive [inhibitor, partial curve]. In the case of Cc1ccc2cc(C=O)c(N(C)C)nc2c1, the Potency is reported as “inactive”. With O=C(NC1CCCCC1)C1c2ccccc2OCC(=O)N1Cc1ccco1 (stereo not drawn) the Potency was “inactive”. With CCCOC(=O)c1cc(-c2ccc(/C=C3/C(=O)N(C)C(=O)C(C#N)=C3C)o2)ccc1Cl the Potency was inconclusive [inhibitor, single point]. For Nc1cccc2c1C(=O)N(CCOc1ccccc1F)C2=O, the activity change, negative = growth inhibition was inconclusive: -34.9% [inhibitor]. With O=C(COc1ccc(F)cc1)N(Cc1ccc(Cl)cc1)C1CCS(=O)(=O)C1 (stereo not drawn) the Potency was “inactive”. For COc1ccccc1NC(=O)CN(c1ccccc1OC)S(=O)(=O)c1ccccc1, the Potency was inconclusive [inhibitor, single point]. In the case of CCc1ccc(OCC(=O)NC(C)(C)C)cc1, the Potency is reported as “inactive”. In the case of Nc1ccc2oc(-c3cc(Br)ccc3Cl)nc2c1, the Potency is reported as inconclusive [inhibitor, single point]. For CC(=O)Nc1cccc(OCCCNS(=O)(=O)c2ccc(F)cc2)c1, the Potency was inconclusive [inhibitor, partial curve]. With Cc1ccsc1C(=O)OCC(=O)Nc1cccc(S(=O)(=O)N2CCOCC2)c1 the Potency was “inactive”. With Cc1cc(C)c2nc(-c3ccccn3)cc(C(=O)Nc3ccc(S(=O)(=O)Nc4cc(C)on4)cc3)c2c1 the Potency was “inactive”. In the case of O=C(Nc1cccc(S(=O)(=O)N2CCOCC2)c1)c1cc(S(=O)(=O)N2CCOCC2)c(Cl)cc1Cl, the Potency is reported as inconclusive [inhibitor, single point]. For COc1ccccc1Oc1ccc(Oc2ccccc2OC)cc1, the Potency was “inactive”. In the case of COc1ccc(-c2nc(SCC(=O)N3CCOCC3)n[nH]2)cc1, the Potency is reported as “inactive”. For CCc1ccc(NC(=S)N2CCCC2)cc1, the Potency was “inactive”. With Cc1nn2cc(-c3ccc(OC(C)C)cc3)nc2s1 the Potency was inconclusive [inhibitor, single point]. With Cn1c(=O)n(C)c2cc(N3CCOCC3)c(NS(=O)(=O)c3cccc(C#N)c3)cc21 the Potency was inconclusive [inhibitor, single point]. With CCC(C)NC(=O)CN(c1ccc(OC)cc1)S(=O)(=O)c1ccccc1 (stereo not drawn) the Potency was inconclusive [inhibitor, single point]. For COC1=CC(=O)C=C(OC)C1=O, the Potency was active: 580 nM and active: 820 nM. For O=C(CN1CCCCC1)NC(=O)NCc1ccccc1, the Potency was “inactive”. With CCn1c(COc2ccccc2C)nc2ccccc21 the Potency was inconclusive [inhibitor, single point]. With COC(=O)NC(=S)Nc1ccc(Oc2ccc(Cl)cc2)c(Cl)c1 the Potency was inconclusive [inhibitor, partial curve, poor fit]. With O=c1[nH]c(=S)[nH]c2c1C(c1ccc(F)cc1)OC(CCc1ccccc1)C2 (stereo not drawn) the Potency was inconclusive [inhibitor, single point]. With COc1ccc(NC(=O)Nc2cccc(C(F)(F)F)c2)cn1 the Potency was active: 20.6 µM. With Cc1cc(C(=O)OCC(=O)N2C(C)CCCC2C)c2ccccc2n1 (stereo not drawn) the Potency was inconclusive [inhibitor, partial curve]. With CCn1ccnc1CN(C)Cc1cn[nH]c1-c1ccc(OC)c(F)c1 the Potency was inconclusive [inhibitor, partial curve, poor fit]. With CCOC(=O)c1ccc(COC(=O)CCc2nc3ccccc3[nH]c2=O)o1 the Potency was “inactive”. For Oc1c(CN2CCOCC2)cc(COCc2ccccc2)c2cccnc12, the Potency was active: 4.11 µM. In the case of COc1ccccc1CNC(=O)CCCCn1c(=O)c2ccccc2n(Cc2ccccc2F)c1=O, the Potency is reported as active: 2.31 µM. For Cc1ccc(SCc2ccc(C(=O)Nc3ccccc3Br)cc2)cc1, the Potency was inconclusive [inhibitor, single point]. For CCN1CCN(c2nc(-c3cccs3)nc3ccccc23)CC1, the Potency was “inactive”. In the case of O=C(/C=C/Nc1cccc(O)c1)c1ccccc1, the Potency is reported as “inactive”. For Cc1ccc(CNC(=O)CSc2nc3ccccc3nc2Cc2ccc(C)cc2)cc1, the Potency was inconclusive [inhibitor, partial curve]. With CCOC(=O)N1CCC(=NNC(=O)c2ccccc2F)CC1 the Potency was “inactive”.

— PubChem BioAssay AID686978 (National Center for Advancing Translational Sciences (NCATS), 2013)
% is set by controls: 0 for no effect and ±100 for the full control effect; potency is the fitted concentration of half-maximal effect; tags give direction and shape of the fitted curve.
